# Experimental data as given in a collection of fitness landscapes (doi:10.1126/science.1257360).
# Some of the results follow.
# B1: PhoQ; a variant is named by its letters at X, in order, P23837 (parent)
# chain: MKKLLRLFFPLSLRVRFLLATAAVVLVLSLAYGMVALIGYSVSFDKTTFRLLRGESNLFYTLAKWENNKLHVELPENIDKQSPTMTLIYDENGQLLWAQRDVPWLMKMIQPDWLKSNGFHEIEADVNDTSLLLSGDHSIQQQLQEVREDDDDAEMTHSVAVNVYPATSRMPKLTIVVVDTIPVELKSSYMVWSWFIYVLSANLLLVIPLLWVAAWWSLRPIEALAKEVRELEEHNRELLNPATTRELTSLVRNLNRLLKSERERYDKYRTTLTDLTHSLKTPLXXLQXXLRSLRSEKMSVSDAEPVMLEQISRISQQIGYYLHRASMRGGTLLSRELHPVAPLLDNLTSALNKVYQRKGVNISLDISPEISFVGEQNDFVEVMGNVLDNACKYCLEFVEISARQTDEHLYIVVEDDGPGIPLSKREVIFDRGQRVDTLRPGQGVGLAVAREITEQYEGKIVAGESMLGGARMEVIFGRQHSAPKDE
# Variants of: B1
# Assay: enrichment ratio after two sorts for PhoP signalling (ratio (wild type AVST 3.29)); higher = more functional
# Details: with PhoP (E. coli)
row,Variant,enrichment ratio
1,KEYT,≤ 0.25
2,PDHM,≤ 0.25
3,EGFQ,≤ 0.25
4,DPAA,≤ 0.25
5,NQAN,≤ 0.25
6,MTRS,≤ 0.25
7,YGRV,≤ 0.25
8,YNYH,≤ 0.25
9,VMMW,≤ 0.25
10,RPNA,≤ 0.25
11,PPVF,≤ 0.25
12,WFTN,≤ 0.25
13,STGI,4.79
14,TAWK,≤ 0.25
15,LWMG,≤ 0.25
16,RSYC,≤ 0.25
17,RETA,≤ 0.25
18,SFKF,≤ 0.25
19,GMLC,≤ 0.25
20,HRFA,≤ 0.25
21,MHSA,≤ 0.25
22,MNSV,16.9
23,LDWL,≤ 0.25
24,RYYY,≤ 0.25

row,Variant,enrichment ratio
1,LMTC,≤ 0.25
2,RRGL,≤ 0.25
3,TCAL,11.1
4,HWMC,≤ 0.25
5,NMPR,≤ 0.25
6,TQNS,12.8
7,RMRT,≤ 0.25
8,VCAQ,≤ 0.25
9,PDKG,≤ 0.25
10,VDPM,≤ 0.25
11,KCWR,≤ 0.25
12,PGYC,≤ 0.25
13,AMPT,≤ 0.25
14,AQQI,14.3
15,VCII,≤ 0.25
16,AFNM,≤ 0.25
17,TEFD,5.86
18,KKAP,≤ 0.25
19,RKMK,≤ 0.25
20,GQWD,≤ 0.25
21,YFMD,≤ 0.25
22,VYEC,≤ 0.25
23,HPLD,≤ 0.25
24,VFDS,≤ 0.25

row,Variant,enrichment ratio
1,VTMH,≤ 0.25
2,EPTC,≤ 0.25
3,HYHP,≤ 0.25
4,SKKG,≤ 0.25
5,KNHT,≤ 0.25
6,EHWM,≤ 0.25
7,FNKE,≤ 0.25
8,RIFL,≤ 0.25
9,KSHY,≤ 0.25
10,GWFE,≤ 0.25
11,PPPI,≤ 0.25
12,DFCS,≤ 0.25
13,DLMP,≤ 0.25
14,NEDP,≤ 0.25
15,YTKF,≤ 0.25
16,NCRE,≤ 0.25
17,AFNV,≤ 0.25
18,NNDV,≤ 0.25
19,PYCS,≤ 0.25
20,SDKS,≤ 0.25
21,EPPQ,≤ 0.25
22,ERYK,≤ 0.25
23,PTMA,≤ 0.25
24,QETD,≤ 0.25

row,Variant,enrichment ratio
1,WKGN,≤ 0.25
2,GILI,8.37
3,AFTA,≤ 0.25
4,LCEK,≤ 0.25
5,WTAT,≤ 0.25
6,DHHT,≤ 0.25
7,NYNT,≤ 0.25
8,GMAN,≤ 0.25
9,APWG,≤ 0.25
10,AHVN,≤ 0.25
11,RTTK,≤ 0.25
12,SEPS,≤ 0.25
13,MSLK,≤ 0.25
14,TIHC,2.24
15,LSWI,3.2
16,RRHQ,≤ 0.25
17,VLVT,≤ 0.25
18,WALK,≤ 0.25
19,WGLN,≤ 0.25
20,IYWN,≤ 0.25
21,MKKS,≤ 0.25
22,KLKL,≤ 0.25
23,FFIA,≤ 0.25
24,DYEY,≤ 0.25

row,Variant,enrichment ratio
1,AHVL,1.09
2,QMHQ,13.4
3,HKIT,≤ 0.25
4,TMIY,≤ 0.25
5,GRMD,≤ 0.25
6,KGYH,≤ 0.25
7,HPKN,≤ 0.25
8,YIVT,≤ 0.25
9,FVSR,≤ 0.25
10,WRTW,≤ 0.25
11,ERPA,≤ 0.25
12,THLN,3.21
13,EHVY,≤ 0.25
14,IMLR,≤ 0.25
15,SSQN,≤ 0.25
16,THFW,≤ 0.25
17,GCKD,≤ 0.25
18,VETM,≤ 0.25
19,HIAS,≤ 0.25
20,MKTS,≤ 0.25
21,KVNS,≤ 0.25
22,SHYY,≤ 0.25
23,GEMP,≤ 0.25
24,QEAF,≤ 0.25

row,Variant,enrichment ratio
1,YDLF,2.45
2,LLYL,≤ 0.25
3,SICE,1.33
4,EGPV,≤ 0.25
5,HWWG,≤ 0.25
6,ANVA,3.53
7,LNRL,0.355
8,HMGQ,≤ 0.25
9,PWVY,≤ 0.25
10,QVGM,0.458
11,NKIF,≤ 0.25
12,WFPE,≤ 0.25
13,RIET,≤ 0.25
14,KDMY,≤ 0.25
15,QSGS,7.64
16,RIEV,≤ 0.25
17,TCSK,13.7
18,ANRW,≤ 0.25
19,PVYA,≤ 0.25
20,VHTH,≤ 0.25
21,NHKN,≤ 0.25
22,HFYS,≤ 0.25
23,LKCA,≤ 0.25
24,HHYK,≤ 0.25

row,Variant,enrichment ratio
1,MLTF,1.58
2,SASI,6.84
3,YFQC,≤ 0.25
4,LILR,0.431
5,MADQ,≤ 0.25
6,QLYQ,2.56
7,FIEP,≤ 0.25
8,QDCT,≤ 0.25
9,LIAC,≤ 0.25
10,PHFN,≤ 0.25
11,SPHK,≤ 0.25
12,KPSS,≤ 0.25
13,YMRG,≤ 0.25
14,QSPR,≤ 0.25
15,QKVI,≤ 0.25
16,RLPE,≤ 0.25
17,SIFS,≤ 0.25
18,KQLV,≤ 0.25
19,WYKM,≤ 0.25
20,TCRP,≤ 0.25
21,AYYL,≤ 0.25
22,VFHC,≤ 0.25
23,TLRI,0.734
24,DWMP,≤ 0.25

row,Variant,enrichment ratio
1,RDSF,≤ 0.25
2,NQWV,≤ 0.25
3,LYHE,≤ 0.25
4,PCDS,≤ 0.25
5,KTML,≤ 0.25
6,THFC,≤ 0.25
7,KLSM,≤ 0.25
8,MSMI,23.5
9,HSWN,≤ 0.25
10,KMWL,≤ 0.25
11,KMLP,≤ 0.25
12,VDEY,≤ 0.25
13,DLTH,≤ 0.25
14,FWSP,≤ 0.25
15,PCHW,≤ 0.25
16,AGKL,≤ 0.25
17,QTGV,≤ 0.25
18,DANT,≤ 0.25
19,ALGK,≤ 0.25
20,EQCR,≤ 0.25
21,AYLD,≤ 0.25
22,IYGW,≤ 0.25
23,PLAM,≤ 0.25
24,IDQC,≤ 0.25

row,Variant,enrichment ratio
1,YLCD,0.253
2,EMSF,≤ 0.25
3,KQTW,≤ 0.25
4,SKCD,≤ 0.25
5,VQSS,≤ 0.25
6,YCLY,≤ 0.25
7,TIQD,6.42
8,QCWS,0.731
9,LEFA,1.62
10,TRCD,6.93
11,IYPH,≤ 0.25
12,HASC,≤ 0.25
13,YDRC,≤ 0.25
14,SNGH,23.3
15,LAKT,≤ 0.25
16,WHIW,≤ 0.25
17,KPCP,≤ 0.25
18,VPQM,≤ 0.25
19,LGTH,≤ 0.25
20,LVQD,≤ 0.25
21,FTGI,≤ 0.25
22,PVYE,≤ 0.25
23,DRYQ,≤ 0.25
24,HQSG,≤ 0.25

row,Variant,enrichment ratio
1,PASK,≤ 0.25
2,LPLS,≤ 0.25
3,SKFS,≤ 0.25
4,IKPK,≤ 0.25
5,CLVM,≤ 0.25
6,GPHG,≤ 0.25
7,VNLN,2.67
8,QTYF,9.42
9,HTAI,≤ 0.25
10,YESL,≤ 0.25
11,KDGV,≤ 0.25
12,SWYD,≤ 0.25
13,WPRH,≤ 0.25
14,NEPN,≤ 0.25
15,FYRI,≤ 0.25
16,DLNF,≤ 0.25
17,GSQR,≤ 0.25
18,HTYN,≤ 0.25
19,DYWN,≤ 0.25
20,NIHT,≤ 0.25
21,MDFM,≤ 0.25
22,SSFN,0.377
23,QQRW,≤ 0.25
24,LVLV,≤ 0.25

row,Variant,enrichment ratio
1,QTYY,≤ 0.25
2,QQQK,≤ 0.25
3,AHCT,≤ 0.25
4,YDYR,≤ 0.25
5,KGYL,≤ 0.25
6,KESK,≤ 0.25
7,RCGV,≤ 0.25
8,YCTR,≤ 0.25
9,ETYC,≤ 0.25
10,QGMT,≤ 0.25
11,PNPA,≤ 0.25
12,WMRD,≤ 0.25
13,SSKH,≤ 0.25
14,WNMT,≤ 0.25
15,QNDF,≤ 0.25
16,VHSR,≤ 0.25
17,NRPA,≤ 0.25
18,PGLM,≤ 0.25
19,DWNH,≤ 0.25
20,DSYH,≤ 0.25
21,KKWI,≤ 0.25
22,VTPQ,≤ 0.25
23,FASL,≤ 0.25
24,LPHC,≤ 0.25

row,Variant,enrichment ratio
1,LHQQ,≤ 0.25
2,HRVM,≤ 0.25
3,CIWL,≤ 0.25
4,YYQG,≤ 0.25
5,GFEI,≤ 0.25
6,PCLA,≤ 0.25
7,YRRQ,≤ 0.25
8,GDKF,≤ 0.25
9,GCCV,≤ 0.25
10,RVDY,≤ 0.25
11,HQPS,≤ 0.25
12,AEFH,1.2
13,FWNM,≤ 0.25
14,ARTM,0.376
15,IVML,≤ 0.25
16,GLAM,10.7
17,GPIS,≤ 0.25
18,RPRE,≤ 0.25
19,YAAK,≤ 0.25
20,VEPH,≤ 0.25
21,PGNW,≤ 0.25
22,NWLS,≤ 0.25
23,YHGG,≤ 0.25
24,NIRW,≤ 0.25

row,Variant,enrichment ratio
1,ASCV,18.9
2,MPLD,≤ 0.25
3,GKMH,≤ 0.25
4,WDLQ,≤ 0.25
5,DEVQ,≤ 0.25
6,VDIM,≤ 0.25
7,RCSV,≤ 0.25
8,VIWA,≤ 0.25
9,TIGA,9.59
10,QKLQ,≤ 0.25
11,NFIE,≤ 0.25
12,DVCV,≤ 0.25
13,DVGS,≤ 0.25
14,RFFC,≤ 0.25
15,MMKC,≤ 0.25
16,LRRN,≤ 0.25
17,WKFV,≤ 0.25
18,SSML,23.6
